Among all 48,000 compounds or so, about 1,200 (2.5%) were called active. Roughly 2% stayed inconclusive and do not appear here.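 How the source made its calls: active means activation of at least 60% and not above a set upper limit (about 1 call in 100 departs from these limits); inconclusive means activation of 40% to 60%, or above that upper limit; inactive means activation under 40%.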 The list shows a part of the results.
The molecules below were run against Probable G-protein coupled receptor 32 (Homo sapiens) (UniProt O75388) (assay: qHTS for Agonists of Human Resolvin D1 Receptor DRV1). Conditions: CHO-K1 GPR32 beta-arrestin PathHunter luminescence, 90 min; at 76.9 µM; hits give high values; zero percent set by DMSO-only wells.
Outline: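 Readings come from a cell-based beta-arrestin complementation format: CHO-K1 GPR32 stable cells (2,500/well) treated 90 min with compounds, then beta-Gal substrate added for 1 h before chemiluminescence imaging.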
Further: 0% is about no effect.

UniProt O75388, sequence (O75388 whole entry, looked up): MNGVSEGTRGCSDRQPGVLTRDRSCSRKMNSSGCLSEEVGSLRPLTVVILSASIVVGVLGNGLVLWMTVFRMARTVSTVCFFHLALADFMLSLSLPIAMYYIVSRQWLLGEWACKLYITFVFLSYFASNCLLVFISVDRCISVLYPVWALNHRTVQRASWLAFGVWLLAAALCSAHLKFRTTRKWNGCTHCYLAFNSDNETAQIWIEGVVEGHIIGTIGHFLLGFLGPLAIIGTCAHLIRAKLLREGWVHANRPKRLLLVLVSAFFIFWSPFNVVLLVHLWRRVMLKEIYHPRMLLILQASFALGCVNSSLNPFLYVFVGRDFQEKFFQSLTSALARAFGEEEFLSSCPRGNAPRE

activation, inactive:
COc1ccc(OC)c(NC(=O)c2cnc(N3CCCCC3)c3ccccc23)c1 -23.7%
CCOC(=O)c1c(NC(=O)CCCOc2ccc(C(C)(C)C)cc2)sc2c1CCCC2 5.53%
CCCSc1ncc(Cl)c(C(=O)N(Cc2cccc(Cl)c2)C2CCS(=O)(=O)C2)n1 (centres undefined) -33.1%
CCOc1ccc(-c2cc(NC(=O)Nc3ccc(Cl)cc3)c(C(=O)OC)s2)cc1 -0.757%
CCOC(=O)C1CCCN(S(=O)(=O)c2cc(Br)cc3c2N(C(C)=O)CC3)C1 (centres undefined) 3.13%
Cc1cccc(C(c2sc3nc(-c4ccco4)nn3c2O)N2CCN(c3ccccc3F)CC2)c1 (centres undefined) 0.392%
CCC(=O)N1CCc2cc(S(=O)(=O)NCCC(=O)NCc3ccc(C)cc3)ccc21 19.4%
COC(=O)c1ccc(NS(=O)(=O)c2ccc3[nH]c4c(c3c2)CCCC4)cc1 31.5%
O=C(NCCc1ccc(Cl)cc1)c1ccc2c(c1)N(Cc1ccc(F)cc1)C(=O)CS2 -3.66%
O=C1COc2ccc(-c3cc(-c4ccccc4)c4c(n3)-c3ccccc3OC4)cc2N1 11.7%
Cc1nn(-c2ccccc2)c2sc(C(=O)Nc3ccc(Br)cc3)cc12 23%
CCc1ccc(NC(=O)[C@H](CSCc2ccccc2)N2Cc3ccccc3C2=O)cc1 -19%
COc1ccc(-c2cc3c(=O)n(CC(=O)Nc4cc(F)ccc4F)ccn3n2)cc1OC 8%
COc1cccc(CNC(=O)CCCn2ncn3c(cc4occc43)c2=O)c1 -9.88%
CCCn1c(SCC(O)c2ccccc2)nc2ccccc21 (centres undefined) -7.31%
CN1CCN(CCCN2c3ccccc3Sc3ccc(S(=O)(=O)N(C)C)cc32)CC1 36.4%
CN(C)c1ccc(-c2nc(-c3cccs3)c(-c3cccs3)[nH]2)cc1 -9.24%
Cc1ccc(C(=O)NCC(c2ccco2)S(=O)(=O)c2cccs2)cc1C (centres undefined) -1.68%
COc1cc2nc(Nc3cccc(C)c3)nc(N)c2cc1OC 10%
Cc1ccc(-c2noc(-c3ccccc3NC(=O)C3CC(=O)N(c4ccc(C)cc4)C3)n2)cc1 (centres undefined) 8.29%
O=c1[nH]c(=O)n([C@H]2CCCO2)cc1F -9.28%
COc1ccc(NC(=O)CCS(=O)(=O)c2ccc3c(c2)oc(=O)n3C)cc1OC -5.37%
O=C(Oc1ccc(F)cc1)c1nc(SCc2ccc(F)cc2)ncc1Cl 0.504%
CC1=C(C(=O)NCc2ccccc2C)C2(CCCCCC2)OC1=O -14%

From PubChem BioAssay AID1346428 (National Center for Advancing Translational Sciences (NCATS), 2018)
